# Test results reported in PubChem BioAssay AID463173 (ICCB-Longwood Screening Facility, Harvard Medical School, 2010).
# Among all 52,000 compounds or so, about 4,300 (8.3%) were called active. Cut-off read from the data, not from the text of the source: active = survival mostly below about 52% (no sharp cut-off); inactive = mostly above about 56%. The list shows a part of the results.
# System: DeltatarO mutant
# Assay: growth inhibition of S. aureus wild type versus tarO mutant, primary screen, teichoic acid synthesis inhibitors, RN4220, OD600 (AID 463173)
# Conditions: OD600, 18 h, hits give low values, screened at 18.75 µg/mL (by protocol)
row,SMILES,survival
1,COc1ccc(CNC(=O)Nc2cn(CC(C)C)c(=O)c3ccccc23)cc1,inactive: 75%
2,CN(C)CCN1C(=O)C(=O)/C(=C(/O)c2ccc(S(=O)(=O)N(C)C)cc2)C1c1ccccc1 (configuration not stated),inactive: 57%
3,O=C(Nc1cccc(-c2nc3ccccc3o2)c1)C(F)(F)F,inactive: 61%
4,Cc1ccc(OCCSc2nc(C)c(Cc3ccccc3)c(=O)[nH]2)cc1,inactive: 58%
5,Cc1ccn2c(Nc3ccc(C(C)C)cc3)c(-c3cccnc3)nc2c1,inactive: 60%
6,Cc1cc(C)c(NC(=O)CSc2nncn3c2cc2oc(C)cc23)c(C)c1,inactive: 65%
7,Cc1cc(-c2ccccc2)n2nc(-c3ccccc3)cc2n1,active: -3%
8,CN(C)CCNC(=O)C(=O)NCC(c1ccc2c(c1)OCO2)N1CCOCC1 (configuration not stated),inactive: 69%
9,Cc1c(C(=O)O)oc2c1-c1nn(Cc3ccc(Cl)cc3)cc1CC2,inactive: 89%
10,CCOc1ccc(C(c2c(O)cc(C)n(Cc3ccco3)c2=O)N2CCCCC2)cc1 (configuration not stated),inactive: 73%
11,Cc1ccc2cccc(NC(=O)C(C)Oc3ccc(Cl)cc3Cl)c2n1 (configuration not stated),active: -2%
12,O=C(NCCC1CCCC1)c1cccs1,inactive: 82%
13,COc1cccc(CNS(=O)(=O)c2ccc3c(c2)C(C(C)C)C(=O)N3)c1 (configuration not stated),inactive: 129%
14,CCCCOc1ccc(C(=O)OCC2CCCN3CCCCC23)cc1OC (configuration not stated),inactive: 107%
15,COc1ccccc1C(=O)Nc1c(C(=O)Nc2ccccc2F)oc2ccccc12,active: 13%
16,Cc1ccc(NC(=O)N2CCN(c3cc(-c4noc(C)n4)ccc3C)CC2)c(F)c1,active: -5%
17,CCC(=O)Oc1ccc(C2Nc3ccccc3-c3nnc(SC)nc3O2)cc1 (configuration not stated),inactive: 73%
18,Cc1ccc(S(=O)(=O)Nc2cc3c(cc2N2CCOCC2)n(C)c(=O)n3C)cc1,inactive: 90%
19,Cc1ccc2nc(-c3cc(NC(=O)COc4ccc(C)c(C)c4)ccc3Cl)oc2c1,active: 30%
20,COC(=O)C1CCN(S(=O)(=O)c2ccc(N3CCCCS3(=O)=O)cc2)CC1,inactive: 78%
21,COC(=O)c1cc(C)nc2c1c(=O)nc(SCc1ccccc1C)n2C1CC1,inactive: 87%
22,Cc1cccc(NC(=O)C(Cc2ccccc2)NS(=O)(=O)c2ccc3c(c2)c(=O)n(C)c(=O)n3C)c1 (configuration not stated),inactive: 70%
23,Cc1ccc(C(=O)NCC(c2ccc3c(c2)OCO3)N2CCOCC2)cc1 (configuration not stated),inactive: 93%

row,SMILES,survival
1,Cc1c(-c2nc(-c3ccc4c(c3)OCO4)no2)nnn1-c1ccc(C(C)C)cc1,inactive: 92%
2,CCc1nn(CCCC(=O)N2CCN(c3cccc(OC)c3)CC2)c(=O)c2cc3occc3n12,inactive: 125%
3,O=C(CCCc1ccccc1)NC1CC(=O)N(c2ccc(F)cc2)C1 (configuration not stated),inactive: 73%
4,CC(=O)c1cccc(NS(=O)(=O)c2cc3c(cc2C)N(C(C)=O)CCO3)c1,inactive: 95%
5,Cc1ccc(NC(=O)N2CCC(CN3CCCC3)CC2)c(C)c1,inactive: 80%
6,Cc1ccc(-c2nc(C(=O)NCc3ccccc3Cl)c3n2CCCCC3)cc1,inactive: 65%
7,CCc1cccc(NC(=O)c2ccc(NC(=O)N3CCSc4ncccc43)cc2)c1,active: -1%
8,Cn1nc(OCC(N)=O)ccc1=O,inactive: 107%
9,O=C1c2cccc3cccc(c23)N1c1ccccc1,inactive: 77%
10,COc1cccc(NC(=O)CSc2nc(-c3ccccc3Cl)nc3c2Cc2c(CO)cnc(C)c2O3)c1,inactive: 113%
11,CCOc1ccc(-n2c(SCC(N)=O)nc3c(oc4ccccc43)c2=O)cc1,inactive: 76%
12,COc1ccc(-c2cc(-c3ccccc3)nc(SCC(=O)Nc3ccccc3F)c2C#N)cc1,inactive: 140%
13,CCOC(=O)C1=C(CS(=O)(=O)c2ccc(OC)c(Cl)c2)NC(=O)NC1c1cccc(OC)c1 (configuration not stated),inactive: 59%
14,O=C(Nc1nncs1)c1ccc(F)cc1,inactive: 80%
15,O=C(O)CNS(=O)(=O)c1ccc2ccccc2c1,inactive: 91%
16,Cc1ccc(S(=O)Cc2nc(-c3ccc(C(=O)NCc4cccc(C)c4)cc3)oc2C)cc1 (configuration not stated),inactive: 97%
17,O=C(CCn1nc(-c2ccc(Cl)cc2)ccc1=O)NCCc1ccccc1,inactive: 78%
18,CC(=O)Nc1c(C)nn(-c2ccccc2)c1N1CCC(C(=O)NCc2ccccc2Cl)CC1,active: -2%
19,COc1ccc(CCN2C(=O)c3[nH]nc(-c4ccccc4O)c3C2c2ccc(OC)c(OC)c2)cc1 (configuration not stated),active: 45%
20,CCOC(=O)c1c(NC(=O)CSc2cn(CCNC(=O)c3c(F)cccc3F)c3ccccc23)sc2c1CCC2,inactive: 93%
21,CCOC(=O)COc1ccc(F)cc1C(=O)c1ccn2nc(-c3ccc(Cl)cc3)cc2n1,inactive: 99%
22,CCOC(=O)c1noc2ncnc(Nc3cccc(OC)c3)c12,inactive: 73%
23,O=C(COc1ccccc1Cl)Nc1ccc2nc(SCC(=O)N3CCCC3)sc2c1,inactive: 49%

row,SMILES,survival
1,O=C(NCc1noc2ccccc12)N1CCN(c2ccccc2)CC1,inactive: 44%
2,CCc1ccccc1NC(=O)N1CCCn2nc(C)cc21,inactive: 97%
3,O=C(NCC(c1ccco1)S(=O)(=O)c1cccs1)c1ccc(F)c(F)c1 (configuration not stated),inactive: 75%
4,CCCn1c(C(=O)OC)cc2c1ccn2C,inactive: 78%
5,Cc1nc(-c2ccccc2)sc1-c1ccc(SCC(=O)NCc2ccccc2Cl)nn1,inactive: 26%
6,CC1CCN(c2nn3c(=O)c(C(=O)NC(C)C)cnc3s2)CC1,inactive: 93%
7,O=C(Nc1ccc(NC(=O)C2CC23CCC3)cc1)C1CC12CCC2 (configuration not stated),inactive: 94%
8,COc1ccc(OC)c(C2=NS(=O)(=O)N(C)C(C(=O)Nc3ccc(F)cc3F)=C2)c1,inactive: 72%
9,N#Cc1nc(-c2ccc(COc3ccc(Cl)cc3)o2)oc1N1CCC(C(N)=O)CC1,active: 34%
10,Cc1ccc(C)c(NC(=O)C2CCCN(c3ncnc4onc(C)c34)C2)c1 (configuration not stated),inactive: 94%
11,O=C(Cn1c(=O)n(-c2ccccc2)c(=O)c2c3c(sc21)CCCC3)Nc1ccc(F)cc1F,inactive: 90%
12,COc1ccc(OC)c(S(=O)(=O)NCCS(=O)(=O)N2CCN(c3ccccc3)CC2)c1,inactive: 80%
13,COc1cccc(CNC(=O)c2cccc(-n3c(C)nc4cccnc43)c2)c1OC,inactive: 80%
14,O=C(O)CCc1ccc(-c2ccccc2)n1Cc1ccco1,inactive: 106%
15,CCCCCn1c(CN2CCN(c3ccc(OC)cc3)CC2)nc2c1c(=O)[nH]c(=O)n2C,inactive: 73%
16,Cc1ccc(Cl)cc1NC(=O)Nc1cccc(OCc2cc(=O)n3ccccc3n2)c1,inactive: 72%
17,COc1ccc(-n2c(-c3ccco3)nc3c(cnn3-c3ccccc3Cl)c2=O)cc1,inactive: 132%
18,Cc1nn(C)c2c1c(-c1ccccc1)cc(=O)n2CC(=O)NC(C)c1ccccc1 (configuration not stated),inactive: 78%
19,COc1ccc(OCC(=O)Nc2ccc(N3CCN(S(C)(=O)=O)CC3)cc2)cc1,inactive: 97%
20,CCOc1ccc(-c2cc3nc(C4CCN(C(=O)OC(C)(C)C)CC4)c(C(=O)Nc4cc(OC)ccc4OC)cn3n2)cc1,inactive: 67%
21,CCN1CCOC(=O)C1CC(=O)Nc1ccc(Br)cc1 (configuration not stated),active: 44%
22,Cc1ccc(Cl)cc1NC(=O)c1sc(-n2nc(C)c(Cc3ccc4c(c3)OCO4)c2C)nc1C,inactive: 85%
23,O=C(Cn1c(=O)n(Cc2ccccc2)c(=O)c2sc3ccccc3c21)Nc1ccccc1,inactive: 71%

row,SMILES,survival
1,N#C/C(=C\c1ccco1)S(=O)(=O)c1ccc(Cl)cc1,inactive: 71%
2,CCC(=O)C1=C(c2ccc(OC)c(OC)c2)N(C(=O)CC)n2c(nnc2-c2ccc(C)cc2)S1,inactive: 68%
3,O=C1CCC(=O)N1C(c1ccccc1)c1ccccc1,inactive: 79%
4,CN(C)CCCC1(O)c2ccccc2CCc2ccccc21,inactive: 85%
5,CC(=O)c1ccc(N2CCN(c3ccc4cc(S(=O)(=O)N5CCCCC5)ccc4n3)CC2)cc1,inactive: 90%
6,COc1ccc(-c2nc(CS(=O)(=O)CC(=O)NCCc3ccc(C)cc3)c(C)o2)cc1,inactive: 85%
7,CCOC(=O)c1ccc(NC(=O)CSc2nc3ccccc3c(=O)n2CCC(=O)NC2CCCCC2)cc1,inactive: 91%
8,COc1ccc(C)cc1NC(=O)CC1NCCNC1=O (configuration not stated),active: 76%
9,Cc1cc(=O)n(Cc2ccccc2)c2c1c(C)nn2C,active: 20%
10,COCCNC(=O)c1ccc2nc(Cc3ccccc3)oc2c1,inactive: 92%
11,CC(C)N(CCCNC(=O)Cn1ncc2c([nH]c3ccccc32)c1=O)Cc1ccccc1,inactive: 102%
12,CN(C)C(=O)CN(c1ccccc1)S(=O)(=O)c1ccccc1,inactive: 96%
13,Cc1cc(C)c2c(=O)cc(C(=O)Nc3sc4c(c3C(=O)NCC3CCCO3)CCCC4)oc2c1 (configuration not stated),inactive: 49%
14,Cc1ccc(Nc2nnc(-c3ccc(C)c(S(=O)(=O)N4CCOCC4)c3)c3ccccc23)cc1,inactive: 75%
15,CCOc1ccc(CNC(=O)CS(=O)(=O)c2cccc3nsnc23)cc1,inactive: 104%
16,COc1ccccc1-c1nc(SCC(=O)NCc2ccccc2)c2c(=O)n(C)c(=O)n(C)c2n1,inactive: 80%
17,O=C(CSC1=NC2CCCCC2N1)N1CCOCC1 (configuration not stated),inactive: 83%
18,COc1ccccc1-c1noc(-c2ccc(NC3CCCC3)c([N+](=O)[O-])c2)n1,active: 43%
19,Cc1cc2nc(-c3ccc(NC(=O)c4ccccc4F)cc3)oc2cc1C,inactive: 66%
20,COc1ccc(OC)c(CNS(=O)(=O)c2ccc(-c3coc(C)n3)cc2)c1,inactive: 79%
21,CC(=O)c1cc(-c2ccccc2)n(CC(=O)Nc2ccc(C)c(C)c2)c1C,inactive: 86%
22,CCCC(CCC)C(=O)Nc1ccc(NC(=O)c2ccco2)cc1,inactive: 98%
23,O=C(c1ccc(F)cc1)c1cn(Cc2ccccc2)c2cc3c(cc2c1=O)OCO3,inactive: 67%
